Experimental data from PubChem BioAssay AID588453 (National Center for Advancing Translational Sciences (NCATS), 2011).
Among all 390,000 compounds or so, about 4,000 (1%) were called active. Inconclusive results, whose numbers are uncertain, are shown with a selection of clear calls. The call rests on the fitted dose curve; in most records, active means well fitted inhibition curve with a large enough effect; inconclusive means small, poorly fitted or top-dose-only effect; inactive means no such curve, though single readings can be large or run the other way. Potencies of inconclusive entries are doubtful fits and often do not repeat.

Each compound was assayed against Thioredoxin reductase 1, cytoplasmic (Rattus norvegicus) (UniProt O89049) (assay: qHTS Assay for Inhibitors of Mammalian Selenoprotein Thioredoxin Reductase 1 (TrxR1): qHTS). Settings: recombinant rTrxR1, NADPH fluorescence consumption, selenite substrate; series mostly up to 114 µM.
Chain of UniProt O89049 (O89049 whole entry, looked up): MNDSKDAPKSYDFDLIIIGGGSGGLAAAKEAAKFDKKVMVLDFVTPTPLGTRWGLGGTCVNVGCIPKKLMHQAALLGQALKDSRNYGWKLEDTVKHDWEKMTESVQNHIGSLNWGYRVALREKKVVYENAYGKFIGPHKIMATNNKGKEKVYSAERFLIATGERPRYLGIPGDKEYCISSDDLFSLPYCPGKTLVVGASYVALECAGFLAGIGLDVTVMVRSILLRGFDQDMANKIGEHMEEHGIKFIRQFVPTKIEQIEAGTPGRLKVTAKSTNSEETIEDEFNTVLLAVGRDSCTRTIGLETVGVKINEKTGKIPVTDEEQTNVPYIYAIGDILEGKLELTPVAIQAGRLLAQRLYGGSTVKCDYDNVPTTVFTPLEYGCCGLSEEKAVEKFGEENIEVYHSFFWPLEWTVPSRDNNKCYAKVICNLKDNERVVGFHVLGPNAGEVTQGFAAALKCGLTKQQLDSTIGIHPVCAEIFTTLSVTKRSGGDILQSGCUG
In short: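 Rat TrxR1 (90 nM in the dispensed reagent) was pre-reduced with 400 uM NADPH for 5 min at room temperature, then incubated with compound for 15 min. After 400 uM selenite was added, NADPH fluorescence (Ex 340/Em 450 nm) was followed for 8 min.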
Further: nearly all actives have a fitted effect of over 65% in size.
Potency means the concentration at half of the fitted maximal effect; tags describe the fitted curve by direction and shape.

Row | SMILES | Potency
1 | CCN(Cc1nc(-c2cccc(C)c2)no1)C(=O)c1ccco1 | inconclusive: 39.8 µM [inhibitor, single point]
2 | CCCCSc1nc(-c2cccc(OC)c2)nc2c1Cc1c(CO)cnc(C)c1O2 | inconclusive: 50.1 µM [inhibitor, partial curve, poor fit]
3 | Cc1ccccc1NC(=S)NC(NC(=O)N(C)C)C(Cl)(Cl)Cl (stereo unspecified) | inconclusive: 11.2 µM [inhibitor, partial curve]
4 | CC(C)c1ccc(C(=O)CC2(O)C(=O)N(CCc3ccccc3)c3ccc(Cl)cc32)cc1 (stereo unspecified) | inactive
5 | O=C(/C=C/c1ccc(O)c(O)c1)OCCc1ccccc1 | inconclusive: 0.224 µM [inhibitor, partial curve, poor fit]
6 | CC(C)(C)c1nnc(NC(=O)NS(=O)(=O)c2ccccc2)s1 | inactive
7 | Cc1cc(C)cc(-n2ncc3c2CCCC3NC(=O)c2cc(C)oc2C)c1 (stereo unspecified) | inconclusive: 79.4 µM [inhibitor, single point]
8 | O=C(/C=C/c1ccc(Cl)cc1Cl)n1cccn1 | inconclusive: 3.55 µM [inhibitor, full curve, poor fit]
9 | CCCCN(CCCC)C(=S)N/N=C/c1c(C)[nH]n(-c2ccccc2)c1=O | inconclusive: 14.1 µM [inhibitor, partial curve]
10 | CCOC(=O)CC(=O)c1sc2c(c1N)c(=O)[nH]c(=O)n2-c1ccc(OC)cc1 | inactive
11 | COc1cc2c(cc1OC)CN(Cc1cc(OC)c(O)c(OC)c1)CC2 | inconclusive: 50.1 µM [inhibitor, partial curve]
12 | COc1ccc(CCNC(=O)c2cc3c(=O)n4ccccc4nc3n2C)cc1 | inconclusive: 79.4 µM [inhibitor, single point]
13 | Oc1c(/C=C/C=C/C=Nc2ccccc2)sc(=S)n1Cc1ccccc1 | inconclusive: 31.6 µM [inhibitor, partial curve]
14 | C=CCNC(=S)NNC(=O)COc1ccc(Cl)cc1Cl | inconclusive: 20 µM [inhibitor, partial curve]
15 | C=CCn1c(-c2ccncc2)n[nH]c1=S | inconclusive: 11.2 µM [inhibitor, partial curve, poor fit]
16 | CCc1cccc(C)c1NC(=O)c1cc2ccccc2o1 | inconclusive: 100 µM [inhibitor, single point]
17 | COc1ccc(C(=O)Nc2ccc(S(=O)(=O)NCc3ccco3)cc2)cc1OC | inconclusive: 50.1 µM [inhibitor, partial curve, poor fit]
18 | CCCN1CCN(C(=O)c2noc3c2COc2ccc(C)cc2-3)CC1 | inconclusive: 1.41 µM [inhibitor, full curve]
19 | COCCNC(=S)Nc1ccc2nsnc2c1 | inconclusive: 56.2 µM [inhibitor, partial curve]
20 | Cc1ccc(SCC2=NNC(=O)C2)cc1 | inconclusive: 3.16 µM [inhibitor, partial curve, poor fit]
21 | O=C(NCCCN1CCN(c2ccccc2F)CC1)c1sc2ncccc2c1-n1cccc1 | inactive
22 | O=C(CCS(=O)(=O)c1ccc(Br)cc1)Nc1ccccn1 | active: 44.7 µM
23 | CCCC(=O)OC1=C(C(C)=O)N(Cc2ccccc2)S(=O)(=O)c2ccccc21 | inactive
24 | CCc1cccc(CC)c1NC(=O)/C(C#N)=C/c1ccccc1C(F)(F)F | inactive

Row | SMILES | Potency
25 | CCCC(=O)N1CCN(c2ccc(NC(=O)c3ccc([N+](=O)[O-])o3)cc2Cl)CC1 | inactive
26 | COc1cccc(NC(=O)Nc2cccc(C)n2)c1 | inactive
27 | O=C1N(c2ccccc2)C[C@@H]2C[C@@H](c3cc4ccccc4o3)N3CCC[C@@]123 | inconclusive: 11.2 µM [inhibitor, partial curve]
28 | Nc1ccc(-c2ccc(C(=O)O)s2)cn1 | active: 15.8 µM
29 | CC(C)NC(=O)N(C)C[C@@H]1Oc2ccc(NC(=O)CCN3CCOCC3)cc2CC(=O)N([C@@H](C)CO)C[C@@H]1C | inconclusive: 31.6 µM [inhibitor, single point]
30 | Cn1c(SCC(=O)NNC(=O)Cc2ccccc2)nc2ccccc2c1=O | inactive
31 | C=CCNC(=S)NNC(=O)Cn1c(-c2ccccc2)cc(=O)n2ncnc12 | inconclusive: 22.4 µM [inhibitor, full curve]
32 | S=c1[nH]c2cc3ccccc3cc2[nH]1 | inactive
33 | Cn1c(=O)n(C)c2cc(N3CCOCC3)c(NS(=O)(=O)c3ccc(F)cc3)cc21 | inactive
34 | COc1ccc2[nH]c(=O)c(CN(Cc3nnnn3Cc3ccccc3)CC3CCCO3)cc2c1 (stereo unspecified) | inconclusive: 70.8 µM [inhibitor, single point]
35 | CN(C(=S)Nc1ccc(Oc2ccccc2)cc1)c1ccc(O)cc1 | inconclusive: 79.4 µM [inhibitor, single point]
36 | CCc1ccc(CNC(=O)C2CCN(C(=O)c3ccc(-n4c(C)cc5ccccc54)s3)CC2)cc1 | inactive
37 | CCOc1ccccc1-n1nnnc1SCC(=O)NC(=O)Cc1ccccc1 | inconclusive: 10 µM [inhibitor, partial curve, poor fit]
38 | COc1ccc(Cl)cc1C(=O)NCC(c1ccc(N(C)C)cc1)N1CCCC1 (stereo unspecified) | inactive
39 | S=C(NCc1ccccc1)N1CCn2cccc2C1c1ccncc1 (stereo unspecified) | inconclusive: 79.4 µM [inhibitor, single point]
40 | COCCn1c(C)nc2oc3ccc(Br)cc3c(=O)c2c1=O | inconclusive: 70.8 µM [inhibitor, single point]
41 | CS/C(=C\[N+](=O)[O-])Nc1ccc(Cl)cc1 | inconclusive: 12.6 µM [inhibitor, partial curve, poor fit]
42 | Cc1ccc(-c2ccc(CCC(=O)O)n2-c2ccc(C)c(Cl)c2)cc1 | inconclusive: 56.2 µM [inhibitor, single point]
43 | COc1cccc(/C=N/n2c(C3CCCCC3)n[nH]c2=S)c1O | inconclusive: 39.8 µM [inhibitor, single point]
44 | O=C(N/N=C\C=C\c1ccco1)c1cc(-c2ccc3ccccc3c2)n[nH]1 | inconclusive: 50.1 µM [inhibitor, partial curve]
45 | Cc1ccc(Cl)cc1N(C)C(=O)c1sc2nc3n(c(=O)c2c1C)CCCC3 | inactive
46 | CCOC(=O)C1=C(CN2CCOCC2)NC(=O)NC1c1cccc([N+](=O)[O-])c1 (stereo unspecified) | inactive
47 | Cc1ccc(CNC(=O)C(C(=O)NCc2ccc(C)o2)c2ncc(C(F)(F)F)cc2Cl)o1 | inconclusive: 79.4 µM [inhibitor, partial curve, poor fit]
48 | O=C(O)CCc1ccc(-c2ccc(Cl)cc2)n1Cc1ccco1 | inconclusive: 20 µM [inhibitor, partial curve, poor fit]

Row | SMILES | Potency
49 | CCN(CC)CCNC(=O)c1cc2c(-c3ccc(Cl)cc3)nn(C)c2s1 | inactive
50 | Cn1cccc1C(=O)/C(C#N)=C/c1ccc(F)cc1 | inconclusive: 25.1 µM [inhibitor, single point]
51 | O=C1c2cccc3cccc(c23)C(=O)N1c1cccnc1 | inactive
52 | O=C(NCC(c1ccco1)S(=O)(=O)c1ccc(Cl)cc1)c1ccc(C(F)(F)F)cc1 (stereo unspecified) | inconclusive: 25.1 µM [inhibitor, partial curve, poor fit]
53 | O=C1c2ccccc2-c2onc3ccc(N4CCCC4)c1c23 | inconclusive: 50.1 µM [inhibitor, partial curve]
54 | COCC(=O)N1CCC(Oc2ccc(C(=O)N3CCSCC3)cc2)CC1 | inconclusive: 79.4 µM [inhibitor, single point]
55 | S=C(NCc1ccccc1)NCc1ccc(Cl)cc1 | inactive
56 | O=C(O)c1ccc(COc2ccc3ccccc3c2/C=C2/NC(=O)N(Cc3ccc(F)cc3)C2=O)cc1 | inactive
57 | O=C1CCc2cc(S(=O)(=O)N3CCN(C(=O)c4ccco4)CC3)ccc2N1 | inconclusive: 28.2 µM [inhibitor, full curve]
58 | CC(C)(C)SCCNC(=O)/C=C/c1ccc(F)cc1 | inactive
59 | CC(C)(C)C(=O)NC(=S)Nc1ccc(Cc2ccncc2)cc1 | inconclusive: 22.4 µM [inhibitor, single point]
60 | CCOC(=O)C(C)Sc1nc(-c2ccco2)cc(C(F)(F)F)c1C#N (stereo unspecified) | inconclusive: 3.98 µM [inhibitor, full curve, poor fit]
61 | Cc1ccc(S(=O)(=O)c2ncccc2[N+](=O)[O-])cc1 | active: 2 µM
62 | O=C(CCC(=O)N1CCOc2ccccc21)NCc1cccs1 | inactive
63 | COc1ccc(CCNC(=O)c2ccc3nc(-c4ccco4)c(-c4ccco4)nc3c2)cc1OC | active: 2.51 µM
64 | CCCCOC(=O)CCn1[nH]c(=O)c2ccccc2c1=O | inconclusive: 6.31 µM [inhibitor, single point]
65 | COC(=O)c1sc(N)c(C(=O)OC)c1COC(=O)C1CC(=O)N(Cc2ccco2)C1 (stereo unspecified) | inconclusive: 17.8 µM [inhibitor, partial curve, poor fit]
66 | COc1ccc(Cl)c2sc(N(CCN(C)C)C(=O)CCS(=O)(=O)c3ccc(C)cc3)nc12 | inconclusive: 11.2 µM [inhibitor, partial curve]
67 | COc1ccc(NC(=O)C(Cc2ccccc2)NS(=O)(=O)c2ccc3c(c2)oc(=O)n3C)c(OC)c1 (stereo unspecified) | inactive
68 | Cc1ccc(NC(=O)c2ccc(F)cc2)nc1 | inactive
69 | COC(=O)c1sc(NC(=S)NC(=O)c2cccc(C)c2)nc1C | inconclusive: 11.2 µM [inhibitor, partial curve]
70 | Cn1nnc2c[n+](CC(=O)c3ccc(Cl)cc3)cc(Br)c21 | inconclusive: 22.4 µM [inhibitor, full curve, poor fit]
71 | COc1ccc(/C=C(\C#N)C(=O)NCc2cccnc2)cc1OC | inconclusive: 50.1 µM [inhibitor, partial curve, poor fit]
